# Measurements as given in publication PMC6919601, “Identification of Plasmodium dipeptidyl aminopeptidase allosteric inhibitors by high throughput screening” (PLoS ONE, 2019).
# Values joined by “and” are separate entries in the source; they are usually repeats but may differ in a detail not shown here. Identical values can stand only once. In all, about 110,000 compounds went through this assay and about 230 (0.21%) showed an effect of 50% or more. The list shows a part of the results.
# Molecular target: DPAP1 (Plasmodium falciparum, UniProt Q8IIJ9)
# Assay: primary screen, percent inhibition; read by cleavage of a fluorogenic dipeptide substrate; higher = more effect of the substance
# Parameters: species or system P. falciparum D10 trophozoite lysates; single well
# 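Further: 30 min substrate incubation versus DMSO and 10 µM JCP410 controls.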
# Sequence of DPAP1 (Q8IIJ9 whole entry, looked up): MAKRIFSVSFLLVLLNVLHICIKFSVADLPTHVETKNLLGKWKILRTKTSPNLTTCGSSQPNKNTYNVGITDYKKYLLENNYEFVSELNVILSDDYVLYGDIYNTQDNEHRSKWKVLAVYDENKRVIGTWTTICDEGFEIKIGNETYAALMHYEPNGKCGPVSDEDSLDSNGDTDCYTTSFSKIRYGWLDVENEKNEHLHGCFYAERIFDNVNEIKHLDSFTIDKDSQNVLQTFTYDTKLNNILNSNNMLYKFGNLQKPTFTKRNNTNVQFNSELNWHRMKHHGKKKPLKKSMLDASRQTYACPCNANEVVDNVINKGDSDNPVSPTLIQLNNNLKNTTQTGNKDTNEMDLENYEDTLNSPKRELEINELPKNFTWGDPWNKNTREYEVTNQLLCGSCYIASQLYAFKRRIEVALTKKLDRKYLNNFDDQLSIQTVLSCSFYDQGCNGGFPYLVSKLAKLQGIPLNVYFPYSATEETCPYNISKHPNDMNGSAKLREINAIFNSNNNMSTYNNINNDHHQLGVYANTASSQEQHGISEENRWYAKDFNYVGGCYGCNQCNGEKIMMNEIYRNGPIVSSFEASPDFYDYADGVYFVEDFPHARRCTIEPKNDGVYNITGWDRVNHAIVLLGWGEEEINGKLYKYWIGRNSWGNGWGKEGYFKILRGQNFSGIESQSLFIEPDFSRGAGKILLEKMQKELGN
row,SMILES,% Inhibition @ 10 uM
1,Cc1nc(O)c(C(=O)/C=C/c2cccs2)c2c1CCCC2,-3.44%
2,CCc1ccc(-n2nc(C)c3c(C)cc(=O)n(CC(=O)NC(C)c4cc(OC)ccc4OC)c32)cc1 (stereo not shown),12%
3,Cc1ccc(O)c(-c2[nH]nc3c2C(c2ccccc2F)N(CCO)C3=O)c1 (stereo not shown),0.558%
4,CCOc1ccc(C2c3c(-c4ccccc4O)n[nH]c3C(=O)N2CC2CCCO2)cc1OC (stereo not shown),-1.35%
5,CC(C(N)=O)C1=NC(C)(C)Cc2ccccc21 (stereo not shown),-3.05%
6,CCOC(=O)C1=C(O)/C(=C\c2ccc(OC)cc2)N=C1C,3.05%
7,Cc1ccc(C2c3c(-c4ccccc4O)n[nH]c3C(=O)N2CCO)cc1 (stereo not shown),-1.56%
8,CCN1C(=O)C(CC(=O)Nc2ccccc2)S/C1=N/C1CCCCCC1 (stereo not shown),-15.4%
9,CCN(CC)C(=O)c1c(NC(=O)c2ccco2)sc2c1CCCC2,-10.8%
10,CC(=O)Nc1ccc(Oc2ccc(NC(C)=O)c(N)c2)cc1N,2.95%
11,CN1CCN(Cc2ccc(Cl)c(Cl)c2)CC1,-3.71%
12,COc1ccccc1C(=O)Nc1ccc(C)c(O)c1,4.11%
13,CC(CCc1ccccc1)NC(=O)C1CCN(S(=O)(=O)c2ccc(Br)s2)CC1 (stereo not shown),-0.0508%
14,CC(C)c1ccc(/C=C2/NC(=O)NC2=O)cc1,-1.25%
15,COc1ccccc1-c1c(C)nn2c(N3CCCCCC3)cc(C)nc12,0.238%
16,O=C(c1ccc(Cl)cc1)N1CCN(C(=O)c2ccco2)CC1,-1.29%
17,O=C(O)C1Cc2c([nH]c3ccccc23)C(c2ccc(Cl)cc2Cl)N1 (stereo not shown),4.22%
18,CCc1c(C)sc(NC(=O)COc2ccccc2)c1C(N)=O,-9.11%
19,CCC(C)c1ccc(NC(=O)C2C3C=CC(O3)C2C(=O)O)cc1 (stereo not shown),-3.24%
20,CCCNC(=O)OCCOC12CC3CC(CC(C3)C1)C2,-0.712%
21,CCCOC(=O)c1sc2nc(C)c(C)c(C)c2c1N,7.49%
22,O=C(Cn1ncc2c3ccccc3n(Cc3ccccc3)c2c1=O)N1CCN(c2ncccn2)CC1,4.95%
23,O=C(Nc1cc(-c2ccccc2)[nH]n1)c1cc2c(s1)-c1ccccc1OC2,-3.08%
24,Cc1cccc(C(=O)Nc2cc([N+](=O)[O-])ccc2Cl)c1,5.43%
25,OCC1CCCCN1Cc1cc(F)ccc1F (stereo not shown),-1.75%
26,Cc1cc(N2CCCC(C(=O)O)C2)n2cnnc2n1 (stereo not shown),-5.33%

row,SMILES,% Inhibition @ 10 uM
1,CC(NC(=O)c1ccc2nc(N3CCOCC3)sc2c1)C12CC3CC(CC(C3)C1)C2 (stereo not shown),8.62%
2,COc1cc(CO)ccc1OCc1nnnn1-c1ccc(C)cc1,-8.72%
3,FC(F)(F)COc1nc(N2CCCCC2)nc(N(c2ccccc2)c2ccccc2)n1,-3.38%
4,O=[N+]([O-])c1cccc(/C=C/c2ccc3ccccc3n2)c1,-1.5%
5,COc1ccc(CN2CCN(C(=O)CC(C)C)CC2)cc1,0.214% and -1.44%
6,Cc1cc(C)c2c(NC(=O)c3ccccc3)c(C(O)c3ccccc3)sc2n1 (stereo not shown),-7.8%
7,COc1ccc2c(CNCc3ccc(C)o3)c(C(=O)O)n(Cc3ccc(F)cc3Cl)c2c1,7.87%
8,Cc1ccc(S(=O)(=O)N(CC(=O)N2CCOCC2)c2ccc(C)c(Cl)c2)cc1,-6.94%
9,CC1CCc2c(sc3ncnc(N4CCN(C)CC4)c23)C1 (stereo not shown),1.83%
10,O=[N+]([O-])c1ccc(CS(=O)(=O)Nc2c(Cl)cccc2Cl)cc1,3.98%
11,CCN1CCCC1CNC(=O)c1cc2c(-c3cccc(OC)c3)nn(C)c2s1 (stereo not shown),6.08%
12,O=C(CCC1CCCCC1)Nc1ccc(S(=O)(=O)Nc2cnc3ccccc3n2)cc1,-4.16%
13,CC(C)NC(=S)N1CCN(Cc2ccc3c(c2)OCO3)CC1,4.32%
14,Cc1ccsc1/C=C1N=C(/C=C/c2ccc(Cl)cc2)OC\1=O,2.44%
15,COC(=O)C1(c2ccc(OC)c(OC)c2)CCCC1,-1.56%
16,Cc1ccc(CNc2ncc(-c3ccccc3)n2C)cc1,-2.91%
17,SC1=NC2=C(C(c3ccc(Cl)cc3Cl)N1)N1CCC2CC1 (stereo not shown),-4.43%
18,Sc1nnc(-c2ccc3ccccc3n2)n1Cc1ccccc1,-5.03%
19,Cc1cccc(CN2CCCN(C)CC2)c1,4.38%
20,CCCCC(C(=O)O)N1C(=O)c2cc(Cl)c(Cl)cc2C1=O (stereo not shown),3.05%
21,CCN(CC)CCCNC(=O)c1ccc2nc(N3CCC(C)CC3)sc2c1,0.828%
22,Cc1cc(C)n(-c2nnc(C)n2N)n1,-3.63%
23,Cc1ccc(C(=O)Nc2noc3ccccc23)cc1,2.19%
24,CC(C)C[C@H](NC(=O)c1ccc(-c2ccccc2)s1)C(=O)NCC#N,-0.0207%
25,COc1ccc(NC(=O)CSc2nc3c(cc2C#N)CCCCC3)cc1OC,-8.48%
26,O=C(CCc1nnc2n(Cc3ccccc3Cl)c(=O)c3ccccc3n12)NCCN1CCOCC1,0.981%

row,SMILES,% Inhibition @ 10 uM
1,CC(=O)NC(=O)/C(C#N)=C/Nc1cccc(C(C)=O)c1,-1.06%
2,Cc1ccccc1C(=O)N1CCN(c2ccc(NC(=O)c3cccs3)cc2)CC1,-4.01%
3,CCCNC(=O)c1c(C)[nH]c(C(C)=O)c1C,-0.361%
4,CCN(Cc1ccccc1)C(=O)c1oc(=O)c2ccccc2c1-c1ccc(C)cc1,-5.22%
5,COc1cc2c(cc1OC)C(c1ccc3c(c1)OCO3)N(C)CC2 (stereo not shown),6.96%
6,CCOc1ccc(OCc2ccc(C(=O)N3CCC(C)CC3)o2)cc1,0.413%
7,COc1cc(CCC(=O)NCc2ccc(F)cc2)on1,-0.946%
8,O=C(Nc1ccc2c(c1)OCO2)c1ccc(Br)o1,-0.294%
9,CCN(CCN(C)C)Cc1ccc(-c2ccccc2)cc1,-4.04%
10,CC(C)OCCCn1c(=O)c2ccccc2n2c(-c3cc(Br)cs3)nnc12,3.3%
11,CC1=C(C(=O)Nc2ccccn2)C(c2ccncc2)C2=C(O)CC(C)(C)CC2=N1 (stereo not shown),-4.49%
12,Clc1ccccc1N1CCN(Cc2cccc3ccccc23)CC1,1.55%
13,Cc1ccc2c(c1)-c1ncc(-c3noc4ccccc34)cc1CO2,1.25%
14,Cc1cc(OCc2cc(=O)n3c(-c4ccccc4)csc3n2)ccc1Cl,-0.495%
15,Cn1c(=O)c2c(nc(CN3CCCCC3)n2CC(N)=O)n(C)c1=O,0.317%
16,Oc1ncnc2c1nnn2Cc1ccccc1,-1.24%
17,COc1ccc(-c2cc(C(=O)N3CCCCC3)no2)cc1OC,-1.84%
18,CCN(CC)CCN(CC)Cc1cc(OC)ccc1OC,7.79%
19,COc1ccc2nc(N=C(NC(C)=O)NC(C)=O)nc(C)c2c1,0.587%
20,CCCCCNC(=O)C1CC=CCC1C(=O)O (stereo not shown),-6.69%
21,CC(C)N(Cc1ccccc1)C(=O)Cn1ncc2c(=O)oc3ccccc3c21,-3.94%
22,CC(C)CC(C(=O)Nc1ccc(C2CCCC2)cc1)N1CCN(C)CC1 (stereo not shown),0.873%
23,COc1ccc(C2Nc3ccccc3C(=O)N2Cc2ccco2)cc1COc1ccc(NC(C)=O)cc1 (stereo not shown),16.4%
24,COc1cccc(CN2CCN(Cc3cccc(OC)c3OC)CC2)c1,-3.83%
25,COc1ccc(Br)cc1C(=O)Nc1ccc(NC(=O)c2ccco2)cc1,-0.48%
26,COc1ccc(OCC(=O)NCCc2nc3ccccc3[nH]2)cc1,-0.0267%

row,SMILES,% Inhibition @ 10 uM
1,CC(=O)c1c(C)nc2n(C)c3ccccc3n12,-7.06%
2,O=C(c1cc(Sc2cccc(Cl)c2)nc2ccccc12)N1CCC2(CC1)OCCO2,-2.26%
3,COc1ccccc1-c1cc2ccccc2c(N)n1,-1.95%
4,Cc1ccc(/C=C(\C#N)C(N)=S)c(C)c1,0.968%
5,COc1ccccc1CNC(=O)c1ccc(C(C)(C)C)cc1,0.247%
6,CCOc1ccccc1C(=O)Nc1ccc(C)c(Cl)c1,-1.07%
7,CC(=O)c1[nH]nnc1Nc1nc(C)cc(C)n1,-1.05%
8,CCOCCCNC(=O)c1c(NC(=O)Cc2coc3cc(C)cc(C)c23)sc2c1CCC2,1%
9,CC(=O)c1cc(F)c(N2CCN(C)CC2)cc1C,3.01%
10,CCN1CCN(c2ccc(NC(=O)c3cccnc3Cl)cc2)CC1,-4.12%
11,O=C1CC(N2CCOCC2)C(=O)N1c1ccc(OC(F)(F)Cl)cc1 (stereo not shown),5.24%
12,O=C(Nc1ccccc1C(=O)Nc1ccccc1)c1ccccc1Br,-4.72%
13,Cc1ccc2c(c1)-c1c(cnn1CC(=O)NCCN1CCOCC1)CO2,0.851%
14,CCn1c(C)nc2cc(S(N)(=O)=O)ccc21,3.16%
15,O=C(C1CCCN(S(=O)(=O)c2ccc3nc(O)ccc3c2)C1)N1CCC(Cc2ccccc2)CC1 (stereo not shown),-2.55%
16,O=C1CC(N2CCN(CCOCCO)CC2)C(=O)N1c1ccccc1 (stereo not shown),2.01%
17,Cc1cc2c(cc1Br)NC(=O)C21C(C#N)=C(N)OC2=C1C(=O)CCC2 (stereo not shown),0.98%
18,Cc1cc(C)c2c(N)c(C(=O)Nc3ccccn3)sc2n1,-3.04%
19,CN1CC=C(CNc2cccc3ccccc23)CC1,0.878%
20,CSc1c(CNC(=O)c2ccccc2)c2ccccc2n1C,-2.32%
21,O=C(Nc1ccccc1[N+](=O)[O-])c1cccc(S(=O)(=O)Nc2ccc(Br)cc2)c1,-1.77%
22,CCOCCCNCc1c(C(=O)O)n(C)c2ccccc12,-1.44%
23,COc1cc(C2c3c(oc4cc(C)c(C)cc4c3=O)C(=O)N2c2ccc(C)cn2)ccc1O (stereo not shown),-5%
24,CCOC(=O)c1c(C)n(C)c2ccc(OCC(O)CNC3CCCCC3C)cc12 (stereo not shown),-1.33%
25,Cc1ccc(-n2ncc(C(=O)NCCN3CCOCC3)c2C2CCN(C(=O)OC(C)(C)C)CC2)cc1,1.41%
